The results in this text go back to PubChem BioAssay AID488969 (Vanderbilt High Throughput Screening Facility, 2010).

In all, about 110,000 compounds were measured (“z-score”: median about -0.1, highest 2% from about 2 on). This is one part of the list. Activity calls are given as the source filed them.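 How the source made its calls: active means z-score in the third read window above 3 or below -3; inactive means the rest.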

The test concerns the target Metabotropic glutamate receptor 8 (Rattus norvegicus) (UniProt P70579). Briefly: rat mGluR8 modulators via GIRK flux, primary screen, cell-based, thallium flux, HTS (AID 488969). The following applies: HEK293 rat mGluR8, GIRK (G protein-gated inwardly rectifying potassium channel) thallium flux, FluoZin2; at 10 µM; stronger effect = higher value; submaximal glutamate (EC20) added with thallium.
Sequence of UniProt P70579 (P70579 whole entry, looked up): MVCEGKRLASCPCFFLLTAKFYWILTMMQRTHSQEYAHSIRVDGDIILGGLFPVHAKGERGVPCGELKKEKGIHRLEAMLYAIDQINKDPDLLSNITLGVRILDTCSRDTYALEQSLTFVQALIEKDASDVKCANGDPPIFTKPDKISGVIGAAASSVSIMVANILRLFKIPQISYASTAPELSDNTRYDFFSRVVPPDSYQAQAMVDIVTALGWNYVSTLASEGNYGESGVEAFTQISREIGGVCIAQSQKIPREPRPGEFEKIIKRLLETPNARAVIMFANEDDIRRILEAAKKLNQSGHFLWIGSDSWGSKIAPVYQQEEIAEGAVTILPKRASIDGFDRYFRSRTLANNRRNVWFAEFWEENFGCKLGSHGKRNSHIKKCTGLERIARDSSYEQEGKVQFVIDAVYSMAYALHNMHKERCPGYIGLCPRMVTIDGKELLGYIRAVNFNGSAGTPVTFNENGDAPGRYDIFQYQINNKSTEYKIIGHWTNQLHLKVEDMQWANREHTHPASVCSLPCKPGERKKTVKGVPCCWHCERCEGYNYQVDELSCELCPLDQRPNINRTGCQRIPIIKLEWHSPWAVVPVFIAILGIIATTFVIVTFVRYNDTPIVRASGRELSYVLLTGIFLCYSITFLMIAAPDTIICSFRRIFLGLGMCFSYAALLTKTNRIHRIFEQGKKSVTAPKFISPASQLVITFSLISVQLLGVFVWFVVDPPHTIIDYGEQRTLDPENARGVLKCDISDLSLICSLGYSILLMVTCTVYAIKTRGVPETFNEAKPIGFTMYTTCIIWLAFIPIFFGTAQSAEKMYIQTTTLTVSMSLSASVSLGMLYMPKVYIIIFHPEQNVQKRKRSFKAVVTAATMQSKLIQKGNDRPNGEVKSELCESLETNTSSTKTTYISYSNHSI
As for `CC(=O)OCC1OC(n2ccc(=O)[nH]c2=O)C(O)C1O` (centres undefined), the z-score is -0.378.
The compound `COC(C(=O)Nc1ccc(S(=O)(=O)Nc2cccc3ccccc23)cc1)c1ccccc1` (centres undefined) displayed a z-score of -0.115.
`O=S(=O)(c1ccc(Cl)cc1)N1CCN(c2nc(-c3cccs3)nc3ccccc23)CC1` had a z-score of -0.166.
The same measure for `Cc1ccc(S(=O)(=O)C2CCCCC2=O)cc1` (centres undefined): -0.299.
The value for `COc1ccc(CNc2oc(COc3ccccc3)nc2C#N)cc1` was -0.365; that for `C=CCNC(=S)Nc1cc(S(=O)(=O)N2CCOCC2)ccc1-n1cncn1` was -0.526.
As for `Cc1ccc(C(=O)OCC(=O)c2ccc(Cl)s2)s1`, the z-score is -0.00745.
The value for `Cn1c(Br)nc2c1c(=O)n(CC(O)COc1ccccc1)c(=O)n2C` (centres undefined) was 0.109; that for `CCSc1nnc2c(n1)OC(c1ccc(C(=O)O)cc1)N(C(C)=O)c1ccccc1-2` (centres undefined) was -0.0637; that for `CN1CCN(C(=O)c2cc(-c3ccccc3)on2)CC1` was 0.0853.
The value for `COC(=O)C(NC(=O)c1ccc(OC)cc1)(Nc1ncc(S(=O)(=O)c2ccc([N+](=O)[O-])cc2)s1)C(F)(F)F` (centres undefined) was -0.144; that for `COc1ccc(N2CCN(CCC(N)=O)CC2)cc1` was -0.173; that for `CCN(CC)CCCn1c(=S)[nH]c2ccc(Cl)cc2c1=O` was 0.0726.
The value for `O=C(O)CN1C(=O)SC(Nc2ccc(C(=O)O)cc2)C1=O` (centres undefined) was -0.214; that for `O=C(Oc1ccc(N(Cc2cccs2)C2=NS(=O)(=O)c3ccccc32)cc1)c1ccccc1Cl` was -0.19.
`COc1ccc(S(=O)(=O)Cc2ccc(C(=O)NC(C)C)o2)cc1` showed a z-score of 0.419.
The value for `CCOC(=O)CNC(=O)CSc1nnc(-c2cccc(OC)c2)n1CC` was 0.611.
The value for `CC1Cc2ccccc2N1C(=O)CSc1nnc(Cc2ccccc2)n1CCc1ccccc1` (centres undefined) was 0.082; that for `O=C(NCCCN1CCN(Cc2ccccc2Cl)CC1)Nc1ccccc1` was -0.159.
The same measure for `O=C(CCCOc1ccccc1)Nc1nccs1`: -1.29.
Turning to `CCOC(=O)c1sc(NC(=O)c2ccccc2OC)nc1C`, the z-score came out at 0.136.
In turn, `Cc1ccc(S(=O)(=O)NC(CN2CCOCC2)=NCCNS(=O)(=O)c2ccccc2)cc1` had a z-score of 0.133.
The same measure for `COc1cccc(C2C(C(=O)c3cc4ccccc4o3)=C(O)C(=O)N2CCN(C)C)c1OC` (centres undefined): -0.0254; for `COCCCNC(=O)CN(Cc1ccc(Cl)cc1)S(C)(=O)=O`: 0.901.
The value for `CCOC(=O)c1cnn(-c2cc(C(C)(C)C)nc3c(-c4ccccc4)c(C)nn23)c1N` was -0.143; that for `CCCCCn1nc(C)c2c(C)cc(=O)[nH]c21` was -0.088; that for `CCc1ccc(OCC(=O)Nc2ccc(-c3nc4ccccc4o3)c(O)c2)cc1` was 0.25.
The value for `CC(OC(=O)CCCN1C(=O)c2ccccc2C1=O)C(=O)Nc1ncc(Cl)cc1Cl` (centres undefined) was 2.08.
Compound `CCOC(=O)c1ccc(COC(=O)c2nonc2N)cc1` gave a z-score of -0.0847.
The same measure for `O=C(CN1CCC(C(O)(c2ccccc2)c2ccccc2)CC1)Nc1cc(Cl)ccc1Cl`: 0.472.
The value for `CCCOC(=O)NC(CC)COC(=O)Nc1cccc(C)c1C` (centres undefined) was active: 3.15.
The value for `O=C(Nc1ccc(Br)cc1F)C1CCCO1` (centres undefined) was -0.0425; that for `CCCC12CN3CC(C)(CN(C1)C31CCCCC1)C2=O` was -0.279; that for `CCOc1ccc(NS(=O)(=O)c2ccc3[nH]cc(C(=O)NC(C)CC)c(=O)c3c2)cc1` (centres undefined) was -0.000843.
Turning to `CC(C)NC(=O)c1ccc(CS(=O)(=O)c2ccc(Br)cc2)o1`, the z-score was -0.196.
The value for `O=C(NC1(C(=O)NC2CCCCC2)CCCCC1)c1ccc2c(c1)OCO2` was -0.289; that for `COc1cccc(-c2nn(C)c3sc(C(=O)NCc4ccc(C)cc4)cc23)c1` was -0.18; that for `CCN(CC)c1nc(N)nc(N(c2ccccc2)c2ccccc2)n1` was -0.177.
The value for `CSCCC(NS(=O)(=O)c1ccc2c(c1)oc(=O)n2C)C(=O)NC1CCCCC1` (centres undefined) was -0.279; that for `O=S(=O)(c1ccc2nc(Cc3cccc(C(F)(F)F)c3)[nH]c2c1)N1CCOCC1` was -0.766.
Turning to `COc1ccc(/C=N/NC(=O)C2c3ccccc3-c3ccccc32)cc1`, the z-score is -0.068.
The value for `COc1cc(N2CCCC2)c(OC)cc1/C=C1/NC(=S)NC1=O` was -1.62.
Consider `O=C(O)c1ccc2c(c1)C(c1ccccc1)OC2=O` (centres undefined), for which the z-score is -0.285.
The value for `CCC(=NCc1ccco1)c1c(C(F)(F)F)[nH]n(-c2nc3ccccc3s2)c1=O` was -0.0533; that for `CCCC(=O)n1nc(-c2ccco2)nc1N` was -0.0155.
The value for `Cc1ccn2c(NC(=O)C(C)(C)Oc3ccc(Cl)cc3)c(-c3cccs3)nc2c1` was -0.19; that for `O=S(=O)(NCc1cccnc1)c1ccc(Cl)s1` was 0.136; that for `C=CCSc1nnc(-c2cc3c(C(F)(F)F)nn(C)c3s2)n1C` was 0.12.
The value for `C=C(C)C1CC=C(C)/C(=N/NC(=O)COc2ccccc2C)C1` (centres undefined) was 1; that for `Cc1c(NC(=O)c2ccc3ncccc3c2)c(=O)n(-c2ccccc2)n1C` was -0.371; that for `CCOC(=O)C1=NNC2(c3ccc(Cl)cc3)C(=O)N(c3ccc(C)cc3)C(=O)C12` (centres undefined) was -0.0691.
Consider `Clc1ccccc1OCc1nn2c(-c3ccncc3)nnc2s1`, for which the z-score is -1.28.
The value for `CCOC(=O)c1c(NC(=O)C2CCCN(S(=O)(=O)c3ccccc3)C2)sc2c1CCCC2` (centres undefined) was 0.269; that for `Cc1ccc(S(=O)(=O)NCC(=O)OCC(=O)NC(=O)c2cccn2C)cc1` was -1.09; that for `COc1ccc(F)cc1S(=O)(=O)NCc1ccccc1` was 0.33.
On to `CC(=O)NC1(C(F)(F)F)C(=O)NC(C)=C1C#N` (centres undefined), for which the z-score is -1.29.
The value for `CCc1ccc(N2CC34C=CC(O3)C(C(=O)OC(C)C)C4C2=O)cc1` (centres undefined) was -0.444.
The same measure for `Cc1nc(SCC(=O)N2CCCc3ccccc32)c2oc3ccccc3c2n1`: 1.25; for `O=C1c2ccccc2CCC12N=NCC2c1ccc(Cl)cc1` (centres undefined): -0.484.
Consider `Cc1ccc(NC(=O)COC(=O)c2sccc2C)cc1S(=O)(=O)N1CCOCC1`, for which the z-score amounted to 1.38.
The value for `O=C(Nc1ccc(Cl)c(S(=O)(=O)Nc2ccccc2Cl)c1)c1cccs1` was -0.616.
As to `CNS(=O)(=O)c1cc(OCC(N)=O)c(C)cc1Cl`, the z-score was determined as 0.25.
The same measure for `NS(=O)(=O)c1ccc(CNC(=O)/C=C/c2ccccc2)cc1`: -0.244; for `CC(=O)Nc1ccc(OC(=O)c2cccnc2)cc1`: -0.52; for `O=C(O)COc1ccc(/C=N/n2c(COc3ccccc3)nc3ccccc3c2=O)cc1`: -0.124.
The same measure for `Cc1ccc(N2C(=O)c3n[nH]c(C)c3C2c2ccco2)cc1` (centres undefined): -0.43.
The value for `Cc1cccc(-c2noc(CCC(=O)Nc3ccccc3)n2)c1` was 0.461; that for `Cc1nc(C(=O)N(C)C)nn1-c1ccc(Cl)cc1Cl` was 0.0355.
For `COc1cccc(NC(=O)c2ccco2)c1`, the z-score was -0.0273.
`N#Cc1cc(N)ccc1Sc1ccccc1` registered a z-score of -0.207.
The value for `CCc1ccc(OCc2nnc(SCCN3CCOCC3)n2CC)cc1` was -0.0812; that for `CN(c1ccccc1)S(=O)(=O)c1ccc(NC(=S)Nc2ccccc2)cc1` was -0.168.
The value for `CC1(C)Cc2c(C#N)c(N3CCCC3)nc(-c3ccco3)c2CO1` was -0.157; that for `O=C(NCCCNC(=O)c1cccs1)c1cccs1` was 0.0412.
As for `CC(C#CCN1CCCCC1)OCCOCc1ccccc1` (centres undefined), the z-score was -0.301.
The same measure for `CCCCN1C2=NCCCN2c2ccccc21`: -0.957; for `CCCCOC(=O)C1CN(c2ccccc2)N=C1C(=O)OCC` (centres undefined): -0.345; for `CCCN(CCC)C(=O)Cn1c2ccccc2c2nc(=O)cc(C)n21`: -1.12.
As for `COc1ccccc1N1CCN(C(=O)CSc2nnc3c4ccccc4nc(Cc4ccccc4)n23)CC1`, the z-score was -0.296.
`CCOC(=O)C1=C(c2cccc(Oc3ccccc3)c2)NC(=S)NC1C` (centres undefined) displayed a z-score of -0.382.
The same measure for `COc1cc(/C=N\NC(=O)c2ccc(Cn3nc([N+](=O)[O-])c(Cl)c3C)o2)ccc1O`: -0.186; for `O=C(NCc1nc2ccccc2[nH]1)c1ccc(Cl)c(S(=O)(=O)N2CCCC2)c1`: -0.297; for `CCOC(=O)CSc1nc2c(c(=O)n1-c1ccc(OC)cc1)SCC2`: -0.486.
The same measure for `COc1cc(-c2nc3n(n2)C(c2ccc(F)cc2)C2=C(CCCC2=O)N3)cc(OC)c1OC` (centres undefined): 0.741.
The value for `O=S(=O)(c1ccc(C2CCCCC2)cc1)N1CCCC1` was -0.277; that for `COc1ccc(-n2c(=O)c3c4c(sc3n3c(C)nnc23)CC(C)CC4)cc1` (centres undefined) was active: -3.05; that for `O=C(CN(c1ccccc1)S(=O)(=O)c1ccccc1)Nc1ccccc1C(=O)NCc1ccco1` was -0.212.
For the compound `c1ccc(CSc2n[nH]c(-c3ccco3)n2)cc1`, the z-score is 0.877.
On to `COc1ccc(N2C(=O)CC(Nc3cccc(C(C)=O)c3)C2=O)cc1OC` (centres undefined), for which the z-score is -0.0978.
The value for `O=C(CN(C(=O)c1ccc(Cl)cc1Cl)N1C(=O)C2C3C=CC(C3)C2C1=O)c1ccc(F)cc1` (centres undefined) was -0.194; that for `CCC(Cc1ccccc1)NC(=O)CN(C)S(=O)(=O)c1ccc2c(c1)c(=O)n(C)c(=O)n2C` (centres undefined) was -0.144.
The same measure for `CSCCC1C(C#N)=C(N)Oc2n[nH]c(-c3cccs3)c21` (centres undefined): -0.543.
On to `COc1ccc2[nH]c(=O)c(CN(CC3CCCO3)C(=O)Nc3ccc(F)cc3)cc2c1` (centres undefined), for which the z-score is -0.93.
The same measure for `CNC(=O)COC(=O)[C@@H](Nc1ccc(S(=O)(=O)N2CCOCC2)cc1[N+](=O)[O-])C(C)C`: -0.0667; for `Cc1cc(C)c(C(N)=O)c(Nc2cccc3ccccc23)n1`: 0.14.
The same measure for `CN(C)c1oc(/C=C/c2ccccc2)nc1C#N`: 0.108; for `CC(=O)OC(C(=O)n1nc(C)cc1C)c1ccccc1` (centres undefined): 0.38; for `c1ccc(CCNc2nnnn2-c2ccccc2)cc1`: 0.0093.
`Cc1ccc(S(=O)(=O)N2CCCC(c3nc(-c4ccc(C)o4)no3)C2)cc1` (centres undefined) yielded a z-score of -0.326.
The same measure for `Cc1cc(C)c(C#N)c(SCC2COc3ccccc3O2)n1` (centres undefined): -0.341.
As for `CCOC(=O)c1c(-c2cccc([N+](=O)[O-])c2)csc1NC(=O)CCCOc1ccccc1OC`, the z-score is -0.344.
Compound `Cc1nc(NCC2CCCO2)[nH]c(=O)c1CCC(C)C` (centres undefined) had a z-score of 0.502.
The value for `c1ccc(C(Cc2nc(-c3cccnc3)no2)c2ccccc2)cc1` was 0.232; that for `O=c1c2ccccc2nnn1CSc1nnc(Nc2ccccc2)s1` was -1.46.
The same measure for `COC(=O)c1ccccc1S(=O)(=O)C(C)(C)C`: -0.0721; for `Cc1cc(C)n(CC2CC(=O)N(c3ccc(F)c(Cl)c3)C2=O)n1` (centres undefined): 0.64; for `O=C(c1ccco1)N1CCN=C1SCc1ccccc1Cl`: -0.489.
In turn, `CCn1ncc(/C=N\NC(=O)c2cc(-c3ccc(C)cc3C)nc3ccccc23)c1C` returned a z-score of -0.571.
The same measure for `C=CCc1cc(Cl)ccc1OCCCNC(C)C`: 0.878.
